The target of the experiment is T1, ^CFPBUBR1:BUB3 (human, UniProt O60566; O43684).
T1 construct: BUBR1, human; BUB3, human
As to the kind of experiment: FRET or BRET; MCC FRET sensor: ^CFPBUBR1 donor and O-MAD2^TAMRA acceptor (100 nM each) with CDC20 (500 nM or 100 nM) and catalysts MAD1:C-MAD2, BUB1:BUB3, MPS1; sensitized TAMRA emission over time; 50 mM Hepes pH 7.5, 150 mM NaCl, 5% glycerol, 10 mM ß-Mercaptoethanol. The following applies: both partners purified.

T1 sequence (O60566 whole entry, chain 1 of 2): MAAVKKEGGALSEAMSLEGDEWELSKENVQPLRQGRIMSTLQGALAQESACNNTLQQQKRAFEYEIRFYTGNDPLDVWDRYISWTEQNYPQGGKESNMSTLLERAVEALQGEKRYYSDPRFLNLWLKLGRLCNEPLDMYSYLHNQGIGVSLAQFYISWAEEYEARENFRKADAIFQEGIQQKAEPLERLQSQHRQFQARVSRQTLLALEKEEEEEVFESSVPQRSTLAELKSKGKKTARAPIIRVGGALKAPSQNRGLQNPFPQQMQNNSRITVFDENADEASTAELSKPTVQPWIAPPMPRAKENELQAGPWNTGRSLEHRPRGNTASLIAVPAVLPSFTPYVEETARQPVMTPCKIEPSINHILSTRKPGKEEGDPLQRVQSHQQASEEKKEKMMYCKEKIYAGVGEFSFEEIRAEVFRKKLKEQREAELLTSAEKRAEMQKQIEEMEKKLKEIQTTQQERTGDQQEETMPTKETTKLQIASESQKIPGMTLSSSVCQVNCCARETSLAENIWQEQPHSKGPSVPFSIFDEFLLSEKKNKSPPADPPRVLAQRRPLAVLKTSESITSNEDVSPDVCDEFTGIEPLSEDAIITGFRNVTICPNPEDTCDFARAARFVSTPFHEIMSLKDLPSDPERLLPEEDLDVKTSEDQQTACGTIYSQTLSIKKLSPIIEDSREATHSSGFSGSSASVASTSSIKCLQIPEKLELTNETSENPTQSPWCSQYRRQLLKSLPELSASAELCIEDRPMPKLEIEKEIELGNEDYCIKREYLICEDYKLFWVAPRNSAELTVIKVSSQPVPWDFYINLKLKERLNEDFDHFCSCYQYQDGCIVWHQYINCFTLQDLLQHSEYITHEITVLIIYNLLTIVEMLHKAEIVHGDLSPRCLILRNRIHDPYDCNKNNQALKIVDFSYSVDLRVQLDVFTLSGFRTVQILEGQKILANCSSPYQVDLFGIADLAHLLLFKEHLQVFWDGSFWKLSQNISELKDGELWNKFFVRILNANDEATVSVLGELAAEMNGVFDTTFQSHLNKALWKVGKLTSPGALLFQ
T1 sequence (O43684 whole entry, chain 2 of 2, further chain): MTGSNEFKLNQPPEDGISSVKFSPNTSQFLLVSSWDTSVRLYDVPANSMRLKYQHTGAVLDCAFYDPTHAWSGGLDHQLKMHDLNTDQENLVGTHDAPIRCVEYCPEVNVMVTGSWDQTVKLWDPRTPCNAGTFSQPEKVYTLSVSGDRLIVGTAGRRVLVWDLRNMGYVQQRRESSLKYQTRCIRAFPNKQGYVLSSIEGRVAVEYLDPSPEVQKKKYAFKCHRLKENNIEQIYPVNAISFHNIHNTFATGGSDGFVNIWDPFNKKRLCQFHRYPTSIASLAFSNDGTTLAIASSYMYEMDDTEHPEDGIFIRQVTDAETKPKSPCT

B1: O-MAD2^TAMRA (natural protein)
chain: not shown
modifications: TAMRA (fluorescence acceptor; position not stated)
notes: MAD2, human, added in the open topology (O-MAD2)
On to B1, for which the binding result is recorded as “binds”.

The values above are taken from publication PMC12102207, “Interplay of kinetochores and catalysts drives rapid assembly of the mitotic checkpoint complex” (Nature Communications, 2025).
